Data as given in patent publication US20210300873A1 (Clear Creek Bio, Inc., priority 2020, published 2021).
Counter-ions that a name gives are not always drawn. Certain results were filed several times, with different values. Only these are listed. There may be further records. The values listed for one entry read as repeated measurements on other runs, samples or individuals.

format: physicochemical; details: storage, ambient condition (temperature and humidity) or closed cap; sodium salt

Structure (SMILES) | Stability of the polymorphic form (in words)
Cc1c(-c2ccc(-c3ccccc3F)cc2)nc2ccc(F)cc2c1C(=O)O [Pattern F, brequinar sodium salt] | KF 7.2%), 6, unstable, convert to [table] and unstable [text]
Cc1c(-c2ccc(-c3ccccc3F)cc2)nc2ccc(F)cc2c1C(=O)O [Pattern B, brequinar sodium salt] | hydrate KF 4.8% unstable, convert to [table] and unstable [text]
Cc1c(-c2ccc(-c3ccccc3F)cc2)nc2ccc(F)cc2c1C(=O)O [Pattern G, brequinar sodium salt] | ^1HNMR, KF 15.3%), unstable, convert [table] and unstable [text]
Cc1c(-c2ccc(-c3ccccc3F)cc2)nc2ccc(F)cc2c1C(=O)O [Pattern E, brequinar sodium salt] | KF 8.8%), 2, unstable, convert to [table] and unstable [text]
